# Data: ChEMBL document CHEMBL4888484, “Replenishing the malaria drug discovery pipeline: Screening and hit evaluation of the MMV Hit Generation Library 1 (HGL1) against asexual blood stage Plasmodium falciparum ,using a nano luciferase reporter read-out” (2022)
# The whole screen tested about 150,000 compounds, of which about 540 (0.36%) showed an effect of 50% or more. This is one part of the list.
# System: Plasmodium falciparum
# Experiment: Primary screen in NF54 nanoGlo assay, in single point, at 2uM, 72h; a lower Z score goes with more inhibition
# Assay type: functional, Erythrocyte
# Conditions: timepoint 72 hour
SMILES,% Inhibition,Z score
NC(=O)N1CCC[C@H](C(=O)Oc2cccc3c2CCCC3)C1,0%,0.06
O=C(Cn1nnc2ccccc21)NCc1nccnc1-c1ccsc1,7%,-0.91
O=C(Cc1ccoc1)NC1CC2OCCCC12 (stereo unspecified),11%,-1.07
CCc1cc(C(=O)N[C@H]2C[C@@H](c3cc(NCCO)ncn3)C2)ccn1,-7%,0.61
CCn1nc(CO)c2c1CCN(C(=O)N[C@@H](C)c1cc(F)cc(F)c1)C2,-1%,0.11
Cc1ccc(CNCCc2nnc[nH]2)c(Br)c1,-6%,0.56
O=C(c1ccc(-c2cn[nH]c2)o1)N1CCCCC1,-13%,1.3
CCCc1nc(N2CCC(CNC(=O)Cn3cnnn3)CC2)no1,-14%,1.5
Cc1nnc2ncc(-c3cccc(N(C)C)c3)cn12,-5%,0.85
O=C(Cn1cccn1)Nc1cc(C2CCCC2)[nH]n1,-9%,1.45
Cc1ccc(C)c(OCc2nc(CC(=O)NC3CC3)cs2)c1,-8%,1.15
COc1ccc(-c2cnc3nnc(C)n3c2)c(-n2cccn2)c1,11%,-2.1
Cc1ccc(C(=O)N2CCC(CCn3c(C)cnc3C3CC3)CC2)cn1,-14%,1.85
COCc1ncc(C(=O)N2CCC[C@@H]2CCc2ccccn2)s1,-7%,1.2
COc1ccc(C2=NO[C@](CC(=O)Nc3ccccc3F)(C(=O)O)C2)cc1,-29%,3.35
CC1=C(C(=O)c2ccccc2)[C@@](NC(=O)c2cccc(C(F)(F)F)c2)(C(F)(F)F)C(=O)N1CC1CCCCC1,-6%,0.68
Cc1nnc(-c2cc(C(C)C)n(-c3cccc(C(=O)N[C@H]4CCCc5ccccc54)c3)n2)o1,3%,-0.49
CN(C)c1ncc(CNC2CCC(C)(O)CC2)n1C (stereo unspecified),5%,-0.52
O=C(c1ccc2cc[nH]c2c1)N1CCC(F)(F)CC1,1%,-0.2
Cc1cccc(C(=O)NCCS(=O)(=O)C(C)(C)C)n1,-8%,1.11
Cc1ccc(NC(=O)N2CC[C@@]3(C2)C(=O)N(C)c2ccccc23)cc1,1%,-0.19
COc1cccc(CN2CC3(CCN(C(=O)Cn4cccn4)CC3)CC2=O)c1,-12%,1.89

SMILES,% Inhibition,Z score
Cc1ccc(-n2cc(NC(=O)c3cc(C)no3)cn2)c(C)c1,-5%,0.56
Cc1ccc(CNS(=O)(=O)c2c(C)sc(C)c2-c2cc(C(F)(F)F)on2)cc1,2%,-0.3
Cc1ccc(N2CCC([C@H](C)N3CCN(C)CC3)CC2)nn1,8%,-1.12
NC(=O)Cc1nc(CN2CC(=O)NC2=O)n(-c2cccc3c2CCC3)n1,-7%,1.05
Cc1ccc(CN2CCCn3nc(C(=O)NCCC(=O)NCCC(C)C)cc3C2=O)cc1,-17%,2.52
Cn1nncc1CC(=O)N1CCc2cc(F)c(F)cc21,-16%,2.14
O=C(N[C@H]1CCN(C(=O)OCc2ccccc2)C1)C1CCOCC1,-2%,0.43
O=C(Nc1cccc(-c2ccsc2)c1)N1CCCC1,-5%,0.39
CC(C(=O)Nc1cn(C2CCOCC2)nc1C)=C1CCCC1,-5%,0.8
Cn1nc(-c2cncnc2)nc1N1CCOCC1,-9%,1.09
COc1ccc([C@@H]2CC(=O)Nc3ncnn32)cc1,33%,-3.76
C[C@H](Nc1cccc2c1CCCC2)C(=O)N1CCCC1,-2%,0.31
Cc1ccc2oc([C@H]3CCN(C(C)C)C3)nc2c1,-3%,0.41
CC(C)(C)c1ccc(CCC2OCC(CN3CCCCC3)O2)cc1 (stereo unspecified),0%,-0.03
COc1ccc(CCN(Cc2ccc(C)o2)Cc2ccc(C)o2)cc1OC,4%,-0.55
Cc1ccc(C#N)c(N(C(=O)[C@H]2CCCOC2)C(C)C)c1,0%,-0.03
O=C(O)c1ccc(Oc2cccc(Cl)c2Cl)nn1,9%,-1.82
O=S(=O)(C[C@H]1CCCO1)NCc1ncc(Br)cn1,-11%,1.75
Cc1ccc(-n2c(=O)[nH]cc(C(=O)Nc3ccc4c(c3)OCO4)c2=O)cc1C,-1%,0.23
C[C@H](Nc1ncnc2nc[nH]c12)c1ccn(C)n1,-10%,1.86
C[C@H](O)c1cccc(-c2cc(F)cc(Cn3ccnc3)c2)c1,-12%,1.24
